The source of these data is PMC4336329 (PLoS ONE, 2015).

The whole screen tested about 310,000 compounds, of which about 2,200 (0.71%) showed an effect of 50% or more. The effect is printed as a negative number. This is one part of the list.

Sequence of human ether-à-go-go-related gene (hERG) potassium channel (Q12809 whole entry, looked up): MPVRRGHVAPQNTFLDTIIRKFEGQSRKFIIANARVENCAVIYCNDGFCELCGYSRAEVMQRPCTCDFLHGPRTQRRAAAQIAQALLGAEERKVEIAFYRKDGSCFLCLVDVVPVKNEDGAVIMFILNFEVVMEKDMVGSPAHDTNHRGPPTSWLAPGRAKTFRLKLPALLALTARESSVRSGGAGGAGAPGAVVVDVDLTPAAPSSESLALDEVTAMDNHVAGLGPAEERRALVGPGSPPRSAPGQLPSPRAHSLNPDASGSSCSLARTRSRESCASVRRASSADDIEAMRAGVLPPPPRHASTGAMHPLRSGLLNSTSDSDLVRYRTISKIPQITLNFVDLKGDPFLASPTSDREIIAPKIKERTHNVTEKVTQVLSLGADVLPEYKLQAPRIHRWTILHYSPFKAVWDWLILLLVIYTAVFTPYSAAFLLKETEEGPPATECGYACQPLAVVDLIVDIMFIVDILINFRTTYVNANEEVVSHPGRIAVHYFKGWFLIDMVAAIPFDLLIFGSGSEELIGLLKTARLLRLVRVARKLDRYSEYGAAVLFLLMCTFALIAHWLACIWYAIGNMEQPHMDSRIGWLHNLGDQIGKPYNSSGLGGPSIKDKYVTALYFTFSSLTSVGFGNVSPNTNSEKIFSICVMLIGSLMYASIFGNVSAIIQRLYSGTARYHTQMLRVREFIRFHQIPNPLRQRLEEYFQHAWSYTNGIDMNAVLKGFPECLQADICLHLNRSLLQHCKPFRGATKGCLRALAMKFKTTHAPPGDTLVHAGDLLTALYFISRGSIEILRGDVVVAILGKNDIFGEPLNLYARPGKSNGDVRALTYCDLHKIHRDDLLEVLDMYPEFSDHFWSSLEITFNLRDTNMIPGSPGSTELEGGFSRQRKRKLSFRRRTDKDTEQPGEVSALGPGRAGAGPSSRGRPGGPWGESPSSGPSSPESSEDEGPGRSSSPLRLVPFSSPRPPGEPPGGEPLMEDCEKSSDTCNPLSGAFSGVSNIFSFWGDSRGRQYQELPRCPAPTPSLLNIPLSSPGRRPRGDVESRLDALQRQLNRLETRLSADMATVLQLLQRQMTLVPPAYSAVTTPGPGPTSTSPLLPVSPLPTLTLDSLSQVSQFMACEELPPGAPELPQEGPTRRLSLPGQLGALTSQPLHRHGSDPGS

This experiment has as its target human ether-à-go-go-related gene (hERG) potassium channel (human, UniProt Q12809). As to the kind of experiment: primary screen, population patch clamp on CHO cells stably expressing hERG.
For the compound `COc1cc(-c2ccc(NC(=O)NC3CC3)c(OC)c2)ccc1NC(=O)NC1CC1`, the “hERG current change (%, negative = inhibition) at 1uM” value worked out at 17.9%.

Take `CC(=O)/C(=C/Nc1ccc(Oc2ccccc2)cc1)c1ccccc1`: the “hERG current change (%, negative = inhibition) at 1uM” value was -0.287%.

Take `COc1cc(C2C(C#N)=C(N)Oc3c2ccc2ccccc32)ccc1OCC(=O)Nc1ccc(C)cc1` (centres unmarked): the “hERG current change (%, negative = inhibition) at 1uM” value was 13.1%.

On to `COc1ccccc1NC1=C(Cl)C(=O)OC1OC(=O)c1ccco1` (centres unmarked), for which the “hERG current change (%, negative = inhibition) at 1uM” value is 13.4%.

Take `CSc1oc(-c2ccco2)nc1S(=O)(=O)c1ccc(F)cc1`: the “hERG current change (%, negative = inhibition) at 1uM” value is given as 9.6%.

`COc1ccc(-n2c(C)nc3cc(C(=O)O)ccc32)cc1`: the “hERG current change (%, negative = inhibition) at 1uM” value turned out to be 9.14%.

In the case of `Cc1c(-c2cc(C(=O)O)no2)cnn1C`, the “hERG current change (%, negative = inhibition) at 1uM” value amounted to 14.1%.

Consider `Cc1ccccc1Nc1nc(N)nc(COc2ccc(C#N)cc2)n1`, for which the “hERG current change (%, negative = inhibition) at 1uM” value was -4.44%.

For the compound `CCOc1cc(C(N)=O)cc(Cl)c1OCc1ccccc1`, the “hERG current change (%, negative = inhibition) at 1uM” value amounted to 7.74%.

With `Cc1ccc(C(=O)NCC(=O)Nc2ccc(F)c(F)c2F)cc1`, the “hERG current change (%, negative = inhibition) at 1uM” value worked out at 10.1%.

In the case of `COCCCNC(=S)NNC(=O)c1csc2ccccc12`, the “hERG current change (%, negative = inhibition) at 1uM” value was 9.29%.

Take `CCOC(=O)C1CCCCN1Cc1ccc(-c2ccccc2)cc1` (centres unmarked): the “hERG current change (%, negative = inhibition) at 1uM” value is 17.3%.

Regarding `O=C(NNC(=O)C1CCCCC1)C(=O)NC1CCCCC1`, the “hERG current change (%, negative = inhibition) at 1uM” value worked out at 8.76%.

`O=C(NCC1CCCO1)/C(=C\c1cccs1)NC(=O)c1ccccc1` (centres unmarked): the “hERG current change (%, negative = inhibition) at 1uM” value is 11.3%.

Turning to `CC1CCN(S(=O)(=O)c2ccc(C(=O)NCc3ccco3)cc2)CC1`, the “hERG current change (%, negative = inhibition) at 1uM” value was 3.56%.

In the case of `O=C(NNC1CC(=O)N(c2ccc3c(c2)OCCO3)C1=O)c1ccccc1` (centres unmarked), the “hERG current change (%, negative = inhibition) at 1uM” value was determined as 13.5%.

With `CC(=O)Nc1cccc(C(=O)Nc2ccccc2N2CCOCC2)c1`, the “hERG current change (%, negative = inhibition) at 1uM” value stood at 11.3%.

Turning to `CCNc1ccc(Br)cc(C(=O)/C=C/c2ccc(Cl)cc2Cl)c1=O`, the “hERG current change (%, negative = inhibition) at 1uM” value worked out at 5.03%.

In the case of `COc1ccc(-c2cc(C(=O)N(C)Cc3cccc(OC)c3OC)c3ccccc3n2)cc1OC`, the “hERG current change (%, negative = inhibition) at 1uM” value is recorded as -2.95%.

For `COc1ccc(CNC(=O)c2cc3ccccc3o2)cc1OC`, the “hERG current change (%, negative = inhibition) at 1uM” value was found to be 17.4%.

Regarding `CCOC(=O)c1oc2cc(O)ccc2c(=O)c1-c1ccc(OC)cc1`, the “hERG current change (%, negative = inhibition) at 1uM” value was 14.5%.

Consider `O=C(c1cnc2n(c1=O)CCS2)N1CCN(c2ccc([N+](=O)[O-])cc2)CC1`, for which the “hERG current change (%, negative = inhibition) at 1uM” value is -15.2%.

With `Cc1ccc(S(=O)(=O)N2CCCCC2)cc1NC(=O)COC(=O)c1c(F)cccc1F`, the “hERG current change (%, negative = inhibition) at 1uM” value is reported as 7.19%.

Take `O=C(NNC(=O)C12CC3CC(CC(C3)C1)C2)c1cccc([N+](=O)[O-])c1`: the “hERG current change (%, negative = inhibition) at 1uM” value was 9.44%.

`C=CCn1c(SCC(=O)Nc2cc(OC)c(NC(=O)c3ccco3)cc2OC)nnc1-c1ccncc1`: the “hERG current change (%, negative = inhibition) at 1uM” value came out at 15.4%.

Regarding `Cc1ccnc(NS(=O)(=O)c2ccccc2)n1`, the “hERG current change (%, negative = inhibition) at 1uM” value came out at 4.84%.

`C[n+]1ccc(-c2cc[n+](C)cc2)cc1.[Cl-]`: the “hERG current change (%, negative = inhibition) at 1uM” value came out at 3.57%.

For the compound `O=C(O)c1ccc(CSc2n[nH]c(-c3ccco3)n2)cc1`, the “hERG current change (%, negative = inhibition) at 1uM” value came out at 4.06%.

Turning to `CC(C)(C)NC(=O)NC(=O)COC(=O)c1ccc(OC(F)F)cc1`, the “hERG current change (%, negative = inhibition) at 1uM” value was 9.04%.

Turning to `COc1ccc2nc(COC(=O)c3cccc([N+](=O)[O-])c3)c(C(C)=O)[n+]([O-])c2c1`, the “hERG current change (%, negative = inhibition) at 1uM” value came to 17.5%.

With `Cc1ccc(-c2nc3ncccn3c2NC2CCCCC2)o1`, the “hERG current change (%, negative = inhibition) at 1uM” value was -1.2%.

Take `O=C(Cc1ccc(S(=O)(=O)N2CCOCC2)s1)NCCOc1ccccc1`: the “hERG current change (%, negative = inhibition) at 1uM” value is given as 9.44%.

With `CCOC1=NN(c2ccc(Cl)cc2)C(=O)/C1=C\N(C)C`, the “hERG current change (%, negative = inhibition) at 1uM” value was -13.7%.

For `O=C(Nc1ccc(F)cc1)C1CCN(C(=O)NCc2ccccc2)CC1`, the “hERG current change (%, negative = inhibition) at 1uM” value is on record as -5.28%.

`Cc1cc(N/N=C/c2ccc(O)cc2O)nc(N2CCOCC2)n1`: the “hERG current change (%, negative = inhibition) at 1uM” value was determined as 4.36%.

Take `Cn1c(=O)n(C)c2cc([N+](=O)[O-])c(N3CCN(C(=O)c4ccccc4)CC3)cc21`: the “hERG current change (%, negative = inhibition) at 1uM” value is -0.909%.

Regarding `O=C(CSc1nc2ccccc2n1CC(=O)N1CCCC1)NCc1ccc2c(c1)OCO2`, the “hERG current change (%, negative = inhibition) at 1uM” value was -3.27%.

Regarding `CC(=O)c1cccc(OCc2cc(C(=O)N(C)CCC3CCOCC3)no2)c1`, the “hERG current change (%, negative = inhibition) at 1uM” value turned out to be 4.9%.

Turning to `COc1ccc(-c2nc(-c3ccncc3)no2)cc1`, the “hERG current change (%, negative = inhibition) at 1uM” value turned out to be 8.13%.

For the compound `Cc1ccc(CN2C(=O)C(C)Oc3ccccc32)cc1` (centres unmarked), the “hERG current change (%, negative = inhibition) at 1uM” value is given as 16.2%.

Turning to `COc1ccc(Nc2nnc(SCC(=O)c3cc(C)n(CC4CCCO4)c3C)s2)cc1` (centres unmarked), the “hERG current change (%, negative = inhibition) at 1uM” value amounted to 15.1%.

In the case of `O=C(NC1CCCC1)C(c1ccncc1)N(C(=O)c1csnn1)c1ccc(F)c(Cl)c1` (centres unmarked), the “hERG current change (%, negative = inhibition) at 1uM” value is 10.8%.

Take `CCOc1cc(CNCCO)cc(Br)c1OCc1ccc(Cl)cc1.Cl`: the “hERG current change (%, negative = inhibition) at 1uM” value is listed as -8.87%.

As to `Cc1ccc(-n2ncc3c(=O)n(CC(=O)NCc4ccco4)cnc32)cc1`, the “hERG current change (%, negative = inhibition) at 1uM” value came to 23%.
